{
  "source": "the RNAGym collection of RNA variant scans (doi:10.7554/elife.90254)",
  "parents": {"B1": {"name": "LINE1-full (parent)", "chain": "UACGUAGGUGGUUUUCCCCUGAUAGUGCUAAGGGGGCCUGGAAGUUUGGACUGGGCAGAGCUCAACACAGCGUGGCAAAGUGGCUGUGGCUAGACUGCCUCUCUGGAUUCCUCGUCACUCAGCAGGGCAUCUCUGAGAGAAAUGCC"}},
  "note": "The source gives no read counts; variants with many changes may rest on few reads.",
  "data": [
    {"variants_of": "B1", "assay": "self-cleavage, relative activity (ratio to wild type); higher = more cleavage; in vitro, sequencing; the parent is a self-cleaving ribozyme", "values": [
      {"variant": "G11A G41U U46C U47C U109C", "self-cleavage": 1.84},
      {"variant": "G7A U100A U119C A136U A142G", "self-cleavage": 1.2},
      {"variant": "G11A U20C U85C", "self-cleavage": 0.21},
      {"variant": "A43G U45A U96C C103U A141G", "self-cleavage": 0.12},
      {"variant": "U13C U47C C98G", "self-cleavage": 0.35},
      {"variant": "A31G U119A U134C", "self-cleavage": 2.33},
      {"variant": "C19U C38U A136G", "self-cleavage": 0.7},
      {"variant": "A67G U96C U115C A140G", "self-cleavage": 0},
      {"variant": "A57G A69G U112C G127U A140U", "self-cleavage": 0.31},
      {"variant": "A2G G40U U96C", "self-cleavage": 0.44},
      {"variant": "A69U A79U U102C", "self-cleavage": 0},
      {"variant": "U29C U108C A124U", "self-cleavage": 2.01},
      {"variant": "U14C A94U A141G", "self-cleavage": 0.47},
      {"variant": "U13C A64G A92U A142U", "self-cleavage": 0},
      {"variant": "U14A U62A U132A", "self-cleavage": 0.08},
      {"variant": "A64G U73A U81A", "self-cleavage": 0.18},
      {"variant": "U23C U26A U100A U108C", "self-cleavage": 2.14},
      {"variant": "G48U U62C G105U G125C U130C", "self-cleavage": 0.07},
      {"variant": "U5C U46C U119C", "self-cleavage": 1.95},
      {"variant": "A43U G70A U73C A138G", "self-cleavage": 0.66},
      {"variant": "U23C U52C A57G", "self-cleavage": 0.56},
      {"variant": "U39C A50G U85A", "self-cleavage": 0.04},
      {"variant": "A22G A43U G82A G88A U108C", "self-cleavage": 0.04},
      {"variant": "A2U U13G A22U U23C U47A C99U", "self-cleavage": 0.61},
      {"variant": "U14C U85A A92U", "self-cleavage": 0.23},
      {"variant": "A6G U9C U134A", "self-cleavage": 0.86},
      {"variant": "A59U C116A A140G", "self-cleavage": 0.6},
      {"variant": "C17A U39C U85C U119C A124U A129U A142G", "self-cleavage": 0},
      {"variant": "A64U G75U A141G", "self-cleavage": 0.22},
      {"variant": "U46A A107U C133A", "self-cleavage": 1.41},
      {"variant": "U1A U91A A138G", "self-cleavage": 0.36},
      {"variant": "A6U G7A U14C A50G A67G", "self-cleavage": 0.42},
      {"variant": "G32U A57G A79G U134C", "self-cleavage": 0.61},
      {"variant": "A6G A42U C101U A136G", "self-cleavage": 0.78},
      {"variant": "U91C U112C G114A", "self-cleavage": 0.73},
      {"variant": "U26C A107U A124U A141G", "self-cleavage": 1.99},
      {"variant": "U15C A43G A92U", "self-cleavage": 0.38},
      {"variant": "G41A A65G G74A", "self-cleavage": 0.02},
      {"variant": "U15C U26C A77G C110A A141U", "self-cleavage": 2.3},
      {"variant": "G36A U45C U109C", "self-cleavage": 1.34},
      {"variant": "A2G U115A A141U", "self-cleavage": 0.81},
      {"variant": "A64G U132C A138U", "self-cleavage": 0.21},
      {"variant": "U47C A92U G93A", "self-cleavage": 0.05},
      {"variant": "U26C C120U G126C A140U", "self-cleavage": 1.62},
      {"variant": "U1C A22G U87A", "self-cleavage": 0.08},
      {"variant": "C95U C111U A129G U132C", "self-cleavage": 0.16},
      {"variant": "G80A U87C A107G", "self-cleavage": 0.41},
      {"variant": "U52C A59U A77G", "self-cleavage": 1.06},
      {"variant": "C51U G72U A124G", "self-cleavage": 0.92},
      {"variant": "C76U A92G A94C U115C", "self-cleavage": 0.04},
      {"variant": "A31G A77C G86A", "self-cleavage": 0.12},
      {"variant": "A22U U29C A78G", "self-cleavage": 0.78},
      {"variant": "C38A U62C C84U U130C", "self-cleavage": 0.04},
      {"variant": "A57U A121G A141U", "self-cleavage": 0.23},
      {"variant": "A67U U81C U115C A141G", "self-cleavage": 0},
      {"variant": "A64G U81C A140C", "self-cleavage": 0},
      {"variant": "U46C A67G U73A A117U A124U", "self-cleavage": 1.44},
      {"variant": "U23C G105U U134A", "self-cleavage": 1.73},
      {"variant": "A43U A65U A92G", "self-cleavage": 0.02},
      {"variant": "A2G A43G C120A", "self-cleavage": 0},
      {"variant": "U9A U62C U115C", "self-cleavage": 0},
      {"variant": "A57G U115A A142G", "self-cleavage": 1.23},
      {"variant": "U9A A65U C113U", "self-cleavage": 0.17},
      {"variant": "U20A A50G A67G U132C", "self-cleavage": 0.81},
      {"variant": "G88A U96A U108C", "self-cleavage": 0.04},
      {"variant": "U20A U134C A138U", "self-cleavage": 1.5},
      {"variant": "C38A A69G A124C", "self-cleavage": 0.59},
      {"variant": "A107G G114A A124U G126A", "self-cleavage": 0.9},
      {"variant": "A79G U85G U132C", "self-cleavage": 0.31},
      {"variant": "G58U U132C A142U", "self-cleavage": 0.03},
      {"variant": "U9A U20C U130A A138G", "self-cleavage": 2.38},
      {"variant": "U9C U46C A57G A69U", "self-cleavage": 0.23},
      {"variant": "U14C A22U U102C A141G", "self-cleavage": 1.16},
      {"variant": "U13C U112C A121G", "self-cleavage": 1.41},
      {"variant": "G86A U119C A121U", "self-cleavage": 0.09},
      {"variant": "U20C C61A C99U A129G", "self-cleavage": 0.05},
      {"variant": "A43G U119C U134C", "self-cleavage": 0.61},
      {"variant": "U13C U39C A77G U87A U109C", "self-cleavage": 0},
      {"variant": "U1A A67G U104A", "self-cleavage": 0.54},
      {"variant": "C16U C63U U85C U143C", "self-cleavage": 0},
      {"variant": "G11A U26A A59G A69G", "self-cleavage": 0},
      {"variant": "G21A U46C U134C", "self-cleavage": 1.15},
      {"variant": "C16U A31G G88U U104C", "self-cleavage": 0.21}
    ]}
  ]
}
